B1: UniProt A0EPZ9; numbered along this chain (parent)
chain: MDWQKSLTLIVALTLSRGIGLKNDLPWKLKSDMMFFSRVTSGLLVTRSTGQMNVVLMGRKTWESLPAHSRPLKNRINVVISRQEVLDLGGGAYHARSLDDALALLSQIYDSTSKIQLNRVFVIGGGELCKAAMEHSRLNRIIATVIHNEVDCDVFFPIDFRSSQSCLPWRKQDHSVLEAWVGSKVPQGKINENGFIYEFEMWIRDI

Variants of B1 are the subject of this data set. In words: selection coefficient against synonymous wild-type codons (log2 per generation); higher = faster growth than wild type. To be noted: with Saccharomyces cerevisiae carrying the variant on a plasmid. The method, then:
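Pooled growth of yeast carrying single-residue variants of P. jirovecii dihydrofolate reductase (own DFR1 gene intact), two passages at 30 °C, three cultures, sequenced before and after. Codons with under 15 starting reads are left out; codons of one change are averaged.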

± gives the standard deviation of the averaged measurements. Growth of baker's yeast expressing single-residue variants of Pneumocystis jirovecii dihydrofolate reductase in 8.8 or 44 µM methotrexate (about 75% and 90% inhibition of the wild type). Selection coefficient per generation; 0 = like wild type, above 0 = less sensitive, below 0 = more sensitive or loss of function. No active / inactive call per row; the paper calls resistant above 0.220 (8.8 µM) or 0.243 (44 µM) together with a significance test. At 44 µM about 15% of codons end with one read or none, so the lowest values are floors (replicate rank correlation 0.74; 0.94 at 8.8 µM).

Take L21W: the “selection coefficient against synonymous wild-type codons (log2)” value (“selection coefficient … (log2)” below) (methotrexate 8.8 µM) was -0.0356 ± 0.027 and the “selection coefficient … (log2)” value (methotrexate 44 µM) is -0.00708 ± 0.02.

As for S175R, the “selection coefficient … (log2)” value was -0.076 ± 0.052 (methotrexate 8.8 µM) and -0.115 ± 0.066 (methotrexate 44 µM).

For S175T, the “selection coefficient … (log2)” value reads like this: (methotrexate 8.8 µM) -0.0706 ± 0.021; (methotrexate 44 µM) -0.15 ± 0.067.

As for G89W, the “selection coefficient … (log2)” value (methotrexate 8.8 µM) was -0.523 ± 0.032 and the “selection coefficient … (log2)” value (methotrexate 44 µM) is -0.204 ± 0.16.

With G89T, the “selection coefficient … (log2)” value (methotrexate 8.8 µM) is -0.187 ± 0.053 and the “selection coefficient … (log2)” value (methotrexate 44 µM) is -0.21 ± 0.13.

Turning to G89N, the “selection coefficient … (log2)” value is -0.0826 ± 0.017 (methotrexate 8.8 µM) and -0.0872 ± 0.068 (methotrexate 44 µM).

Consider N193L, for which the “selection coefficient … (log2)” value was -0.18 ± 0.049 (methotrexate 8.8 µM) and -0.145 ± 0.11 (methotrexate 44 µM).

As to N193H, the “selection coefficient … (log2)” value runs as follows: (methotrexate 8.8 µM) -0.0702 ± 0.096; (methotrexate 44 µM) -0.159 ± 0.068.

Take M52Y: the “selection coefficient … (log2)” value (methotrexate 8.8 µM) was -0.195 ± 0.068 and the “selection coefficient … (log2)” value (methotrexate 44 µM) is -0.171 ± 0.14.

Regarding E149T, the “selection coefficient … (log2)” value (methotrexate 8.8 µM) is -0.112 ± 0.038 and the “selection coefficient … (log2)” value (methotrexate 44 µM) is -0.165 ± 0.23.

For the variant L104R, the “selection coefficient … (log2)” value by setting is: (methotrexate 8.8 µM) -0.351 ± 0.07; (methotrexate 44 µM) -0.137 ± 0.3.

As to L104H, the “selection coefficient … (log2)” value (methotrexate 8.8 µM) was -0.53 ± 0.13 and the “selection coefficient … (log2)” value (methotrexate 44 µM) was -0.167 ± 0.055.

As for K130N, the “selection coefficient … (log2)” value was -0.176 ± 0.047 (methotrexate 8.8 µM) and -0.131 ± 0.077 (methotrexate 44 µM).

As for K130D, the “selection coefficient … (log2)” value is -0.338 ± 0.046 (methotrexate 8.8 µM) and -0.427 ± 0.04 (methotrexate 44 µM).

Take L105V: the “selection coefficient … (log2)” value was -0.0336 ± 0.075 (methotrexate 8.8 µM) and -0.0226 ± 0.057 (methotrexate 44 µM).

Regarding K114N, the “selection coefficient … (log2)” value is 0.00334 ± 0.068 (methotrexate 8.8 µM) and 0.182 ± 0.05 (methotrexate 44 µM).

In the case of A132F, the “selection coefficient … (log2)” value is, setting by setting: (methotrexate 8.8 µM) -0.366 ± 0.065; (methotrexate 44 µM) -0.274 ± 0.16.

As for D151H, the “selection coefficient … (log2)” value reads like this: (methotrexate 8.8 µM) -0.0972 ± 0.12; (methotrexate 44 µM) -0.168 ± 0.044.

For the variant G124V, the “selection coefficient … (log2)” value was -0.445 ± 0.066 (methotrexate 8.8 µM) and 0.231 ± 0.07 (methotrexate 44 µM).

In the case of R75D, the “selection coefficient … (log2)” value (methotrexate 8.8 µM) was -0.61 ± 0.033 and the “selection coefficient … (log2)” value (methotrexate 44 µM) was -0.108 ± 0.044.

As for R75M, the “selection coefficient … (log2)” value is, setting by setting: (methotrexate 8.8 µM) -0.505 ± 0.074; (methotrexate 44 µM) -0.107 ± 0.094.

As to G126P, the “selection coefficient … (log2)” value is, setting by setting: (methotrexate 8.8 µM) 0.9 ± 0.056; (methotrexate 44 µM) 1.44 ± 0.035.

In the case of D87S, the “selection coefficient … (log2)” value by setting is: (methotrexate 8.8 µM) -0.251 ± 0.043; (methotrexate 44 µM) -0.291 ± 0.087.

As for D87W, the “selection coefficient … (log2)” value by setting is: (methotrexate 8.8 µM) -0.579 ± 0.077; (methotrexate 44 µM) -0.302 ± 0.034.

Take D87Q: the “selection coefficient … (log2)” value was -0.207 ± 0.068 (methotrexate 8.8 µM) and -0.142 ± 0.14 (methotrexate 44 µM).

For the variant K5Y, the “selection coefficient … (log2)” value stood at 0.37 ± 0.032 (methotrexate 8.8 µM) and 0.38 ± 0.039 (methotrexate 44 µM).

On to P26R, for which the “selection coefficient … (log2)” value by setting is: (methotrexate 8.8 µM) -0.0186 ± 0.052; (methotrexate 44 µM) 0.0447 ± 0.11.

For P26I, the “selection coefficient … (log2)” value was -0.233 ± 0.12 (methotrexate 8.8 µM) and -0.00541 ± 0.12 (methotrexate 44 µM).

In the case of L7T, the “selection coefficient … (log2)” value reads like this: (methotrexate 8.8 µM) -0.0853 ± 0.12; (methotrexate 44 µM) -0.016 ± 0.081.

Consider D205Q, for which the “selection coefficient … (log2)” value by setting is: (methotrexate 8.8 µM) -0.147 ± 0.15; (methotrexate 44 µM) -0.189 ± 0.21.

Turning to G42T, the “selection coefficient … (log2)” value (methotrexate 8.8 µM) was -0.0616 ± 0.094 and the “selection coefficient … (log2)” value (methotrexate 44 µM) was -0.0889 ± 0.15.

Turning to G42N, the “selection coefficient … (log2)” value by setting is: (methotrexate 8.8 µM) 0.113 ± 0.013; (methotrexate 44 µM) 0.154 ± 0.0022.

For G42L, the “selection coefficient … (log2)” value reads like this: (methotrexate 8.8 µM) 0.00889 ± 0.071; (methotrexate 44 µM) 0.00597 ± 0.16.

Consider N77M, for which the “selection coefficient … (log2)” value (methotrexate 8.8 µM) was determined as 0.233 ± 0.05 and the “selection coefficient … (log2)” value (methotrexate 44 µM) came out at 0.375 ± 0.017.

Regarding N77W, the “selection coefficient … (log2)” value (methotrexate 8.8 µM) is -0.648 ± 0.1 and the “selection coefficient … (log2)” value (methotrexate 44 µM) was -0.257 ± 0.0083.

Take Q187P: the “selection coefficient … (log2)” value was -0.0819 ± 0.046 (methotrexate 8.8 µM) and -0.127 ± 0.12 (methotrexate 44 µM).

Take Q187T: the “selection coefficient … (log2)” value is -0.0551 ± 0.069 (methotrexate 8.8 µM) and -0.106 ± 0.15 (methotrexate 44 µM).

Take Q187K: the “selection coefficient … (log2)” value is, setting by setting: (methotrexate 8.8 µM) -0.0105 ± 0.058; (methotrexate 44 µM) -0.0435 ± 0.13.

Consider E134Y, for which the “selection coefficient … (log2)” value by setting is: (methotrexate 8.8 µM) -0.238 ± 0.036; (methotrexate 44 µM) -0.332 ± 0.075.

Turning to E134I, the “selection coefficient … (log2)” value runs as follows: (methotrexate 8.8 µM) -0.338 ± 0.059; (methotrexate 44 µM) -0.158 ± 0.14.

With V39A, the “selection coefficient … (log2)” value reads like this: (methotrexate 8.8 µM) 0.275 ± 0.034; (methotrexate 44 µM) 0.285 ± 0.044.

Take Q164N: the “selection coefficient … (log2)” value is, setting by setting: (methotrexate 8.8 µM) -0.0239 ± 0.086; (methotrexate 44 µM) -0.18 ± 0.13.

Turning to Q164H, the “selection coefficient … (log2)” value (methotrexate 8.8 µM) was 0.00678 ± 0.052 and the “selection coefficient … (log2)” value (methotrexate 44 µM) came out at 0.18 ± 0.019.

In the case of Q164P, the “selection coefficient … (log2)” value (methotrexate 8.8 µM) came to 0.0111 ± 0.061 and the “selection coefficient … (log2)” value (methotrexate 44 µM) was -0.101 ± 0.16.

On to S162M, for which the “selection coefficient … (log2)” value reads like this: (methotrexate 8.8 µM) -0.0481 ± 0.042; (methotrexate 44 µM) -0.174 ± 0.14.

S162F: the “selection coefficient … (log2)” value (methotrexate 8.8 µM) was -0.038 ± 0.022 and the “selection coefficient … (log2)” value (methotrexate 44 µM) is -0.15 ± 0.12.

Turning to L15S, the “selection coefficient … (log2)” value by setting is: (methotrexate 8.8 µM) 0.364 ± 0.23; (methotrexate 44 µM) 0.362 ± 0.24.

On to K189W, for which the “selection coefficient … (log2)” value is -0.26 ± 0.016 (methotrexate 8.8 µM) and -0.263 ± 0.0033 (methotrexate 44 µM).

As for K189E, the “selection coefficient … (log2)” value reads like this: (methotrexate 8.8 µM) -0.00421 ± 0.026; (methotrexate 44 µM) 0.0016 ± 0.068.

For L72I, the “selection coefficient … (log2)” value is 0.204 ± 0.029 (methotrexate 8.8 µM) and 0.194 ± 0.029 (methotrexate 44 µM).

Consider L86A, for which the “selection coefficient … (log2)” value (methotrexate 8.8 µM) is 0.00562 ± 0.039 and the “selection coefficient … (log2)” value (methotrexate 44 µM) is -0.0917 ± 0.071.

Take L86S: the “selection coefficient … (log2)” value was 0.0164 ± 0.041 (methotrexate 8.8 µM) and -0.0568 ± 0.15 (methotrexate 44 µM).

For the variant V176N, the “selection coefficient … (log2)” value by setting is: (methotrexate 8.8 µM) 0.0307 ± 0.011; (methotrexate 44 µM) -0.0114 ± 0.082.

In the case of V176Q, the “selection coefficient … (log2)” value by setting is: (methotrexate 8.8 µM) 0.119 ± 0.036; (methotrexate 44 µM) 0.122 ± 0.015.

Regarding V176S, the “selection coefficient … (log2)” value (methotrexate 8.8 µM) is 0.0531 ± 0.043 and the “selection coefficient … (log2)” value (methotrexate 44 µM) is -0.0216 ± 0.068.

In the case of N53G, the “selection coefficient … (log2)” value (methotrexate 8.8 µM) amounted to 0.00437 ± 0.068 and the “selection coefficient … (log2)” value (methotrexate 44 µM) was found to be 0.0549 ± 0.078.

With N53D, the “selection coefficient … (log2)” value runs as follows: (methotrexate 8.8 µM) 0.481 ± 0.0066; (methotrexate 44 µM) 0.5938 ± 0.0022.

For N53A, the “selection coefficient … (log2)” value (methotrexate 8.8 µM) stood at 0.0871 ± 0.026 and the “selection coefficient … (log2)” value (methotrexate 44 µM) was determined as 0.00474 ± 0.13.
